Assay results reported in the supplement of paper PMC8728848.
This is one part of the list.

Tests used:
Test in all cases: glycan array binding signal (z-score within array); higher = stronger binding
Settings in all cases: glycan notation: IUPAC condensed, linker removed
[1] = target: Gal(b1-3)[Fuc(a1-4)]GlcNAc
How it was run: (§1)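 Glycan array data were curated from 3228 arrays in the Consortium for Functional Glycomics database and kept only where the protein sequence was available. Glycan names were converted to IUPAC-condensed notation, and columns mapping to the same glycan were averaged. The binding signal is a within-array Z-score, averaged across arrays of the same protein sequence at different concentrations or buffers and across linkers. Negative Z-scores can be read as non-binding.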

[2] = target: Gal(b1-3)[Fuc(a1-4)]GlcNAc(b1-2)Man(a1-3)[Gal(b1-3)[Fuc(a1-4)]GlcNAc(b1-2)Man(a1-6)]Man(b1-4)GlcNAc(b1-4)GlcNAc
How it was run: as §1

[3] = target: Gal(b1-3)[Fuc(a1-4)]GlcNAc(b1-2)Man(a1-3)[Gal(b1-3)[Fuc(a1-4)]GlcNAc(b1-2)Man(a1-6)]Man(b1-4)GlcNAc(b1-4)[Fuc(a1-6)]GlcNAc
How it was run: as §1

[4] = target: Gal(b1-3)[Fuc(a1-4)]GlcNAc(b1-3)Gal(b1-3)[Fuc(a1-4)]GlcNAc
How it was run: as §1

[5] = target: Gal(b1-3)[Fuc(a1-4)]GlcNAc(b1-3)Gal(b1-4)GlcNAc
How it was run: as §1

[6] = target: Gal(b1-3)[Fuc(a1-4)]GlcNAc(b1-3)Gal(b1-4)[Fuc(a1-3)]GlcNAc
How it was run: as §1

[7] = target: Gal(b1-3)[GlcNAc(b1-6)]GalNAc
How it was run: as §1

[8] = target: Gal(b1-3)[Neu5Ac(a2-6)]GalNAc
How it was run: as §1

[9] = target: Gal(b1-3)[Neu5Ac(a2-6)]GlcNAc(b1-6)Gal(b1-4)Glc
How it was run: as §1

[10] = target: Gal(b1-3)[Neu5Ac(b2-6)]GalNAc
How it was run: as §1

[11] = target: Gal(b1-4)GalNAc(a1-3)[Fuc(a1-2)]Gal(b1-4)GlcNAc
How it was run: as §1

[12] = target: Gal(b1-4)GalNAc(b1-3)[Fuc(a1-2)]Gal(b1-4)GlcNAc
How it was run: as §1

Gal(b1-4)Glc = target: Gal(b1-4)Glc
How it was run: as §1

Gal(b1-4)Glc6S = target: Gal(b1-4)Glc6S
How it was run: as §1

Gal(b1-4)GlcNAc = target: Gal(b1-4)GlcNAc
How it was run: as §1

[13] = target: Gal(b1-4)GlcNAc(a1-6)Gal(b1-4)GlcNAc
How it was run: as §1

[14] = target: Gal(b1-4)GlcNAc(b1-2)Man(a1-3)Man(b1-4)GlcNAc(b1-4)GlcNAc
How it was run: as §1

[15] = target: Gal(b1-4)GlcNAc(b1-2)Man(a1-3)[Gal(b1-4)GlcNAc(b1-2)Man(a1-6)]Man(b1-4)GlcNAc(b1-4)GlcNAc
How it was run: as §1

[16] = target: Gal(b1-4)GlcNAc(b1-2)Man(a1-3)[Gal(b1-4)GlcNAc(b1-2)Man(a1-6)]Man(b1-4)GlcNAc(b1-4)[Fuc(a1-6)]GlcNAc
How it was run: as §1

[17] = target: Gal(b1-4)GlcNAc(b1-2)Man(a1-3)[Man(a1-6)]Man(b1-4)GlcNAc(b1-4)GlcNAc
How it was run: as §1

[18] = target: Gal(b1-4)GlcNAc(b1-2)Man(a1-6)Man(b1-4)GlcNAc(b1-4)GlcNAc
How it was run: as §1

[19] = target: Gal(b1-4)GlcNAc(b1-2)Man(a1-6)[Man(a1-3)]Man(b1-4)GlcNAc(b1-4)GlcNAc
How it was run: as §1

[20] = target: Gal(b1-4)GlcNAc(b1-2)[Gal(b1-4)GlcNAc(b1-4)]Man(a1-3)[Gal(b1-4)GlcNAc(b1-2)Man(a1-6)]Man(b1-4)GlcNAc(b1-4)GlcNAc
How it was run: as §1

[21] = target: Gal(b1-4)GlcNAc(b1-3)Gal(b1-3)GlcNAc
How it was run: as §1

[22] = target: Gal(b1-4)GlcNAc(b1-3)Gal(b1-4)Glc
How it was run: as §1

[23] = target: Gal(b1-4)GlcNAc(b1-3)Gal(b1-4)GlcNAc
How it was run: as §1

[24] = target: Gal(b1-4)GlcNAc(b1-3)Gal(b1-4)GlcNAc(b1-3)Gal(b1-4)GlcNAc
How it was run: as §1

[25] = target: Gal(b1-4)GlcNAc(b1-3)Gal(b1-4)[Fuc(a1-3)]GlcNAc(b1-3)Gal(b1-4)[Fuc(a1-3)]GlcNAc
How it was run: as §1

[26] = target: Gal(b1-4)GlcNAc(b1-3)GalNAc
How it was run: as §1

[27] = target: Gal(b1-4)GlcNAc(b1-3)[Gal(b1-4)GlcNAc(b1-6)]Gal(b1-4)GlcNAc
How it was run: as §1

[28] = target: Gal(b1-4)GlcNAc(b1-3)[GlcNAc(b1-6)]Gal(b1-4)GlcNAc
How it was run: as §1

[29] = target: Gal(b1-4)GlcNAc(b1-6)Gal(b1-4)GlcNAc
How it was run: as §1

[30] = target: Gal(b1-4)GlcNAc(b1-6)Gal(b1-4)GlcNAc(b1-6)GalNAc
How it was run: as §1

[31] = target: Gal(b1-4)GlcNAc(b1-6)GalNAc
How it was run: as §1

[32] = target: Gal(b1-4)GlcNAc(b1-6)[Gal(b1-3)]GalNAc
How it was run: as §1

Gal3S(b1-3)GalNAc = target: Gal3S(b1-3)GalNAc
How it was run: as §1

Gal3S(b1-3)GlcNAc = target: Gal3S(b1-3)GlcNAc
How it was run: as §1

[33] = target: Gal3S(b1-3)[Fuc(a1-4)]GlcNAc
How it was run: as §1

Gal3S(b1-4)Glc = target: Gal3S(b1-4)Glc
How it was run: as §1

Gal3S(b1-4)Glc6S = target: Gal3S(b1-4)Glc6S
How it was run: as §1

Gal3S(b1-4)GlcNAc = target: Gal3S(b1-4)GlcNAc
How it was run: as §1

Gal3S(b1-4)GlcNAc6S = target: Gal3S(b1-4)GlcNAc6S
How it was run: as §1

[34] = target: Gal3S(b1-4)[Fuc(a1-3)]Glc
How it was run: as §1

Gal3S4S(b1-4)GlcNAc = target: Gal3S4S(b1-4)GlcNAc
How it was run: as §1

Gal3S6S(b1-4)GlcNAc = target: Gal3S6S(b1-4)GlcNAc
How it was run: as §1

B1: MRCL (Homo sapiens), NP_872425.1 (protein)
chain: ATKVHFPFHTCDLRIDGDCFMVSSEADTYYRARMKCQRKGGVLAQIKSQKVQDILAFYLGRLETTNEVTDSDFETRNFWIGLTYKTAKDSFRWATGEHQAFTSFAFGQPDNHGLVWLSAAMGFGNCVELQASAAFNWNNQRCKTRNRYICQFAQEHISRWGPGS
[1]
  glycan array binding signal (z-score): 0.23
[2]
  glycan array binding signal (z-score): -0.876
[3]
  glycan array binding signal (z-score): -0.763
[4]
  glycan array binding signal (z-score): -0.379
[5]
  glycan array binding signal (z-score): -0.527
[6]
  glycan array binding signal (z-score): -0.186
[7]
  glycan array binding signal (z-score): 0.917
[8]
  glycan array binding signal (z-score): -0.262
[9]
  glycan array binding signal (z-score): -0.561
[10]
  glycan array binding signal (z-score): 0.533
[11]
  glycan array binding signal (z-score): -0.523
[12]
  glycan array binding signal (z-score): 0.167
Gal(b1-4)Glc
  glycan array binding signal (z-score): -0.431
Gal(b1-4)Glc6S
  glycan array binding signal (z-score): -0.511
Gal(b1-4)GlcNAc
  glycan array binding signal (z-score): 0.322
[13]
  glycan array binding signal (z-score): -0.615
[14]
  glycan array binding signal (z-score): -0.531
[15]
  glycan array binding signal (z-score): -0.358
[16]
  glycan array binding signal (z-score): -0.383
[17]
  glycan array binding signal (z-score): -0.619
[18]
  glycan array binding signal (z-score): 2.08
[19]
  glycan array binding signal (z-score): -0.087
[20]
  glycan array binding signal (z-score): -0.506
[21]
  glycan array binding signal (z-score): 1.06
[22]
  glycan array binding signal (z-score): -0.145
[23]
  glycan array binding signal (z-score): -0.669
[24]
  glycan array binding signal (z-score): 4.88
[25]
  glycan array binding signal (z-score): -0.536
[26]
  glycan array binding signal (z-score): -0.247
[27]
  glycan array binding signal (z-score): -0.549
[28]
  glycan array binding signal (z-score): 4.12
[29]
  glycan array binding signal (z-score): -0.021
[30]
  glycan array binding signal (z-score): -0.514
[31]
  glycan array binding signal (z-score): -0.516
[32]
  glycan array binding signal (z-score): 0.492
Gal3S(b1-3)GalNAc
  glycan array binding signal (z-score): -0.619
Gal3S(b1-3)GlcNAc
  glycan array binding signal (z-score): -0.328
[33]
  glycan array binding signal (z-score): -0.239
Gal3S(b1-4)Glc
  glycan array binding signal (z-score): -0.458
Gal3S(b1-4)Glc6S
  glycan array binding signal (z-score): 0.598
Gal3S(b1-4)GlcNAc
  glycan array binding signal (z-score): -0.517
Gal3S(b1-4)GlcNAc6S
  glycan array binding signal (z-score): 0.317
[34]
  glycan array binding signal (z-score): 2.4
Gal3S4S(b1-4)GlcNAc
  glycan array binding signal (z-score): -0.823
Gal3S6S(b1-4)GlcNAc
  glycan array binding signal (z-score): -0.693
